Results taken from US5229379A, “Certain N-substituted-amino-alkane phosphinic acid derivatives having anti-epileptic properties” (priority 1990, dated 1993).
The name of at least one read-out is uncertain.

Tested on: "spike and wave" discharges in epileptic rats (male Wistar rats of the Strasbourg colony)
Test: Inhibition of spike and wave discharges in epileptic rats (absence epilepsy model)
Format: in vivo, rat
Conditions: mean ± SEM, 6 rats
Source text: Synchronous "spike and wave" discharges (SWD; frontopariental cortex; 7-8 Hz; 300-1000 μV, duration 0.5 to 40 s, mean value=6.0±3.4 s) and frequently myoclonia facialis accompany a cessation of behaviour. These absence-like conditions occur spontaneously and repeatedly. […] In contrast, a strain could be reared in which 100% of the rats are SWD-free (control rats). This pharmacological model is described in Vergnes M., Marescaux C., Micheletti G., Reis J., Depaulis A., Rumbach L. and Warter J. M., Neurosci. Lett. 33. 97-101 (1982).
In this model, for example, the clinically used anti-epileptics ethosuximide, diazepam, trimethadione and sodium valproate in doses≥25 mg/kg (ethosuximide),≥0.5 mg/kg (diazepam) and≥50 mg/kg (trimethadione and sodium valproate) reduce the spike and wave discharges in dose-dependent manner. […] Phenobarbital is effective at from 2.5 to 10 mg/kg and is ineffective at 20 mg/kg. The action of these anti-epileptics on the crises in rats and absences in humans supports the hypothesis that this animal model represents a pharmacological model for absence epilepsy. Its predictive value appears to be at least as good as that of other customary animal models.
The action of GABAB -antagonists was tested on male Wistar rats (300-400 g) of the Strasbourg colony. […] The rats received water and food ad libidum, and the light/dark cycle was 12/12 hours. The rats were anaesthetised with pentobarbital (40 mg/kg i.p.) and implanted bilaterally with 4 stainless steel electrodes (two in the frontal cortex and two in the parietal cortex). The rats were used for experiments no sooner than one week after the operation.
The rats, which were freely mobile, were accommodated in a Plexiglass cage (17×17×28 cm) (one rat per cage), and, after a 15-minute period for adaptation to the new surroundings, the EEG was recorded over a period of 20 minutes (reference period). The reference line for the particular test series is thus obtained. A GABAB -antagonist was then administered and the EEG was recorded over a period of from 120 to 180 minutes. The rats were kept under constant observation during this period and prevented from falling asleep by gentle manual contact.
The test compound was dissolved in 0.9% sodium chloride solution and injected in doses of 50, 100, 200 and 400 mg/kg i.p.. Alternatively, the test compound may be administered in a polyethylene glycol, such as Tween® 80, (2 drops/10 ml of suspension of the test compound in 0.9% sodium chloride solution; the suspension is homogenised at 40° for 10 minutes by means of ultrasound, injection volume: 2 ml/kg) i.p. or by means of a stomach probe p.o.. Test compounds that are soluble with difficulty are advantageously administered in solution in a mixture of dimethyl sulfoxide (not more than 10% by volume) and 0.9% sodium chloride solution or in 45% aqueous hydroxypropyl-β-cyclodextrin solution. Each animal is treated with all doses in a randomised sequence. The time between two treatments should be at least 5 days. The mean values ±SEM of the sum total duration of the "spike and wave" discharges of 6 rats over a period of 20 minutes are recorded.
The sum total duration of the spike and wave discharges (in seconds) is measured for each 20-minute period of the EEG recording. Comparisons between the treatment and the reference period are carried out by means of non-parametric variance analysis of the groups concerned (Friedman test). The control group and the treated groups are compared by means of the Wilcoxon test only when a significant difference between the two groups is found in the Friedmann test. The significances of the differences according to Wilcoxon between doses marked by an asteriks and dose 0 corresponds to p<0,005.

[1] = i.p. 100 mg/kg, period 0-20 min
[2] = i.p. 100 mg/kg, period 20-40 min
[3] = i.p. 100 mg/kg, period 60-80 min
[4] = i.p. 100 mg/kg, period 80-100 min
[5] = i.p. 100 mg/kg, period 100-120 min

CCCCP(=O)(O)CCCN [3-Aminopropyl(n-butyl)phosphinic acid, 3-aminopropyl(n-butyl)phosphinic acid]
sum total duration of the spike and wave discharges (i.p. 50 mg/kg, period 0-20 min): 219 ± 55 s | sum total duration of the spike and wave discharges (i.p. 50 mg/kg, period 20-40 min): 232 ± 45 s | sum total duration of the spike and wave discharges (i.p. 50 mg/kg, period 40-60 min): 137 ± 34 s | sum total duration of the spike and wave discharges (i.p. 50 mg/kg, period 60-80 min): 151 ± 34 s | sum total duration of the spike and wave discharges (i.p. 50 mg/kg, period 80-100 min): 227 ± 53 s | sum total duration of the spike and wave discharges (i.p. 50 mg/kg, period 100-120 min): 258 ± 39 s | sum total duration of the spike and wave discharges (i.p. 50 mg/kg, period 120-140 min): 226 ± 41 s | sum total duration of the spike and wave discharges (i.p. 50 mg/kg, period 140-160 min): 292 ± 39 s | sum total duration of the spike and wave discharges (i.p. 50 mg/kg, period 160-180 min): 309 ± 32 s | sum total duration of the spike and wave discharges [1]: 213 ± 25 s | sum total duration of the spike and wave discharges [2]: 58 ± 18 s | sum total duration of the spike and wave discharges [3]: 76 ± 30 s | sum total duration of the spike and wave discharges [4]: 33 ± 12 s | sum total duration of the spike and wave discharges [5]: 107 ± 40 s | sum total duration of the spike and wave discharges (i.p. 100 mg/kg, period 120-140 min): 135 ± 36 s | sum total duration of the spike and wave discharges (i.p. 100 mg/kg, period 140-160 min): 92 ± 21 s | sum total duration of the spike and wave discharges (i.p. 100 mg/kg, period 160-180 min): 131 ± 29 s | sum total duration of the spike and wave discharges (i.p. 200 mg/kg, period 0-20 min): 192 ± 73 s | sum total duration of the spike and wave discharges (i.p. 200 mg/kg, period 20-40 min): 73 ± 21 s | sum total duration of the spike and wave discharges (i.p. 200 mg/kg, period 60-80 min): 47 ± 22 s | sum total duration of the spike and wave discharges (i.p. 200 mg/kg, period 80-100 min): 32 ± 30 s | sum total duration of the spike and wave discharges (i.p. 200 mg/kg, period 100-120 min): 95 ± 45 s | sum total duration of the spike and wave discharges (i.p. 200 mg/kg, period 120-140 min): 42 ± 25 s | sum total duration of the spike and wave discharges (i.p. 200 mg/kg, period 140-160 min): 82 ± 44 s | sum total duration of the spike and wave discharges (i.p. 200 mg/kg, period 160-180 min): 58 ± 21 s | sum total duration of the spike and wave discharges (i.p. 400 mg/kg, period 0-20 min): 49 ± 21 s | sum total duration of the spike and wave discharges (i.p. 400 mg/kg, period 20-40 min): 13 ± 6 s | sum total duration of the spike and wave discharges (i.p. 400 mg/kg, period 60-80 min): 2 ± 1 s | sum total duration of the spike and wave discharges (i.p. 400 mg/kg, period 80-100 min): 1 ± 1 s | sum total duration of the spike and wave discharges (i.p. 400 mg/kg, period 100-120 min): 0 ± 0 s | sum total duration of the spike and wave discharges (i.p. 400 mg/kg, period 120-140 min): 2 ± 1 s | sum total duration of the spike and wave discharges (i.p. 400 mg/kg, period 140-160 min): 1 ± 1 s | sum total duration of the spike and wave discharges (i.p. 400 mg/kg, period 160-180 min): 2 ± 1 s | sum total duration of the spike and wave discharges (p.o. 300 mg/kg, period 0-20 min): 61 ± 23 s | sum total duration of the spike and wave discharges (p.o. 300 mg/kg, period 20-40 min): 65 ± 42 s | sum total duration of the spike and wave discharges (p.o. 300 mg/kg, period 40-60 min): 108 ± 55 s | sum total duration of the spike and wave discharges (p.o. 300 mg/kg, period 60-80 min): 102 ± 59 s | sum total duration of the spike and wave discharges (p.o. 300 mg/kg, period 80-100 min): 73 ± 42 s | sum total duration of the spike and wave discharges (p.o. 300 mg/kg, period 100-120 min): 44 ± 18 s | sum total duration of the spike and wave discharges (p.o. 300 mg/kg, period 120-140 min): 26 ± 11 s | sum total duration of the spike and wave discharges (p.o. 300 mg/kg, period 140-160 min): 0 ± 0 s | sum total duration of the spike and wave discharges (p.o. 500 mg/kg, period 0-20 min): 143 ± 45 s | sum total duration of the spike and wave discharges (p.o. 500 mg/kg, period 20-40 min): 134 ± 38 s | sum total duration of the spike and wave discharges (p.o. 500 mg/kg, period 40-60 min): 98 ± 26 s | sum total duration of the spike and wave discharges (p.o. 500 mg/kg, period 60-80 min): 63 ± 16 s | sum total duration of the spike and wave discharges (p.o. 500 mg/kg, period 80-100 min): 36 ± 19 s | sum total duration of the spike and wave discharges (p.o. 500 mg/kg, period 100-120 min): 23 ± 15 s | sum total duration of the spike and wave discharges (p.o. 500 mg/kg, period 120-140 min): 9 ± 19 s | sum total duration of the spike and wave discharges (p.o. 500 mg/kg, period 140-160 min): 0 ± 0 s

NC[C@H](O)CP(=O)(O)CC1CCCCC1 [3-amino-2(S)-hydroxypropyl(cyclohexylmethyl)phosphinic acid]
sum total duration of the spike and wave discharges (i.p. 25 mg/kg, period 0-20 min): 206 ± 48 s | sum total duration of the spike and wave discharges (i.p. 25 mg/kg, period 20-40 min): 97 ± 19 s | sum total duration of the spike and wave discharges (i.p. 25 mg/kg, period 40-60 min): 49 ± 23 s | sum total duration of the spike and wave discharges (i.p. 25 mg/kg, period 60-80 min): 23 ± 14 s | sum total duration of the spike and wave discharges (i.p. 25 mg/kg, period 80-100 min): 4 ± 3 s | sum total duration of the spike and wave discharges (i.p. 25 mg/kg, period 100-120 min): 9 ± 5 s | sum total duration of the spike and wave discharges [1]: 240 ± 60 s | sum total duration of the spike and wave discharges [2]: 12 ± 5 s | sum total duration of the spike and wave discharges (i.p. 100 mg/kg, period 40-60 min): 6 ± 4 s | sum total duration of the spike and wave discharges [3]: 2 ± 1 s | sum total duration of the spike and wave discharges [4]: 4 ± 3 s | sum total duration of the spike and wave discharges [5]: 3 ± 2 s
